Results as given in publication PMC8476856 (Developmental cell, 2021).

Molecular target: the molecule itself
Assay: in vitro microtubule dynamics assay

B1: recombinant human α1A∆-tail/βIII tubulin (complex)
chain 1: [letters of about 450 residues not shown]
chain 2: MREIVHIQAGQCGNQIGAKFWEVISDEHGIDPSGNYVGDSDLQLERISVYYNEASSHKYVPRAILVDLEPGTMDSVRSGAFGHLFRPDNFIFGQSGAGNNWAKGHYTEGAELVDSVLDVVRKECENCDCLQGFQLTHSLGGGTGSGMGTLLISKVREEYPDRIMNTFSVVPSPKVSDTVVEPYNATLSIHQLVENTDETYCIDNEALYDICFRTLKLATPTYGDLNHLVSATMSGVTTSLRFPGQLNADLRKLAVNMVPFPRLHFFMPGFAPLTARGSQQYRALTVPELTQQMFDAKNMMAACDPRHGRYLTVATVFRGRMSMKEVDEQMLAIQSKNSSYFVEWIPNNVKVAVCDIPPRGLKMSSTFIGNSTAIQELFKRISEQFTAMFRRKAFLHWYTGEGMDEMEFTEAESNMNDLVSEYQQYQDATAEEEGEMYEDDEEESEAQGPK
B1 showed a koff of 0.35 s⁻¹ and a kon of 8.5e+06 M⁻¹ s⁻¹.
